Laboratory results taken from the supplement of paper PMC3334620.
Over roughly 33,000 sequences, “E-score (-0.5 to 0.5)” has its median near -0.032; the highest 2% begin near 0.36. This is one part of the list.

What follows are sequences tested against T1, Sko1 (UniProt Q02100) (assay: PBM E-score (8-mer binding enrichment) (E-score (-0.5 to 0.5)); higher = stronger / more preferred TF binding; most listed sequences are background and not binding sites). Conditions: protein concentration: 200 nM; construct: GST-full length.
T1 sequence: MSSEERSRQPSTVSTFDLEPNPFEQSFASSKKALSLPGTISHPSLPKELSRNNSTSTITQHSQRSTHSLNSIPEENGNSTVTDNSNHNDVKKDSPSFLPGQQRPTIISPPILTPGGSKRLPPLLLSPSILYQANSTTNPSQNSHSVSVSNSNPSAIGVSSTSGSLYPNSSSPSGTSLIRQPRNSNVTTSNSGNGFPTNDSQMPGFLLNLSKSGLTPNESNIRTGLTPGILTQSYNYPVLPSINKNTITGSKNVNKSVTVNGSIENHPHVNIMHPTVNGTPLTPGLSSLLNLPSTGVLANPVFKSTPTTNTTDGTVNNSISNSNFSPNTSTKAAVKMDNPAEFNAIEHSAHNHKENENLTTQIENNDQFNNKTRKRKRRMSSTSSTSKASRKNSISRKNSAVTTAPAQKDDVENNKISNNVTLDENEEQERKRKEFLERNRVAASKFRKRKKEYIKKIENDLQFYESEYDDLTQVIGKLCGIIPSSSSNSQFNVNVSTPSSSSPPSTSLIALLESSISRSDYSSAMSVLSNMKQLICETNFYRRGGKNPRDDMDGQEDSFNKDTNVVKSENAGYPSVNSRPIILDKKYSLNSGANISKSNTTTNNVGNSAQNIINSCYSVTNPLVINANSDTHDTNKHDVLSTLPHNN
Outline: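 Full-length yeast transcription factors or their DNA-binding domains, GST-tagged and expressed with PURExpress, were applied at about 100-200 nM to universal all-10-mer Agilent arrays. These arrays had been made double-stranded by primer extension on fresh or once-stripped slides. Detection used fluorescent anti-GST, normalisation used masliner, and E-scores for ungapped eight-base words pooled with reverse complements came from the Universal PBM Analysis Suite.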

| Sequence | PBM E-score |
| --- | --- |
| GCCGCGAA | -0.268 |
| CTAATAGA | 0.15 |
| ATATAGTA | 0.176 |
| CTTCCATC | -0.197 |
| CGACCAGA | -0.204 |
| GATCTTGC | 0.0122 |
| ATCAGTTG | 0.06 |
| ATCGCACG | 0.157 |
| TCGGCAAA | -0.139 |
| GAGCGATC | -0.116 |
| AAGCGCGA | -0.0206 |
| GACATAGC | 0.199 |
| ATCGGGGC | -0.199 |
| ACCAAGGA | -0.204 |
| AATAGACT | -0.0457 |
| ACTCTCCC | -0.339 |
| ATAACCCC | -0.295 |
| CCGTGTAC | -0.0602 |
| CAGTACTA | -0.00068 |
| CCGAACGG | -0.329 |
| CTCCACAA | 0.0357 |
| GGGTAGGA | -0.24 |
| CTAAAGGA | -0.16 |
| ATTTTTTG | 0.102 |

| Sequence | PBM E-score |
| --- | --- |
| GCCCAAAA | -0.115 |
| AGTGGCAA | 0.0246 |
| AACCCTCC | -0.265 |
| ATAAGTCG | 0.0932 |
| AGGAGACT | -0.117 |
| AACGTTGG | 0.118 |
| CACGCTCA | 0.0513 |
| ATGTGCGA | -0.0772 |
| CGTGCGCC | 0.0565 |
| CACCAAGA | -0.0669 |
| ATTGGTCC | -0.0697 |
| ATGGCGGA | -0.2 |
| GCGGATAC | 0.014 |
| GAAATTTC | -0.206 |
| AGGACCGC | -0.257 |
| GAGTACTA | 0.191 |
| CGACTACA | 0.0639 |
| AGCTATAG | -0.335 |
| GGGGGTAC | -0.149 |
| AGCAAAGA | -0.159 |
| AGTTGAAT | 0.135 |
| AAAGAGCT | -0.238 |
| CAGCTCGC | -0.116 |
| ATGGACTG | -0.134 |

| Sequence | PBM E-score |
| --- | --- |
| CTGAAAGC | -0.0367 |
| TCCACCAA | -0.222 |
| AATTTCTC | 0.0228 |
| CGACAACC | -0.127 |
| AAGGGATA | -0.00728 |
| AACCAAGA | 0.14 |
| GCAAGCGA | 0.0365 |
| GATTTATA | 0.252 |
| CTGGCTAC | -0.146 |
| CGGGCTGC | -0.301 |
| ACAATCCT | -0.0906 |
| CACATATG | 0.0908 |
| ATGTGTCA | 0.216 |
| AACCCTGC | -0.156 |
| CGTAGCTA | 0.132 |
| GTACCTAA | 0.199 |
| ACCCGCCC | 0.0231 |
| AACTCTGG | -0.133 |
| AATAATCC | 0.126 |
| ACGTCTTG | 0.39 |
| CTATGGAC | -0.0203 |
| TATCCACA | 0.0418 |
| ATTGCTGG | -0.219 |
| AGTTTCCA | -0.0256 |

| Sequence | PBM E-score |
| --- | --- |
| GTTCCTCA | -0.0514 |
| AGCAATAG | -0.127 |
| AACATACA | 0.189 |
| ACCGTGCG | 0.0174 |
| CGGCTTAA | 0.0088 |
| AGAGGCTA | -0.236 |
| GTAGGCAA | 0.108 |
| ACGTCGTG | 0.361 |
| GATCTACC | 0.00412 |
| CCCCACAG | -0.0219 |
| AGCATCGC | -0.298 |
| AGCGTATG | -0.0197 |
| GACTCCTA | -0.212 |
| CCCGGGTA | -0.282 |
| AAACGTTG | 0.112 |
| CTTAGAAG | -0.096 |
| AACGACTT | 0.0437 |
| CATTCTAC | 0.138 |
| CAATACTA | -0.0518 |
| CAGTCATG | -0.17 |
| ACATTCTA | 0.293 |
| AACCGTGC | -0.0296 |
